{"source": "paper PMC12820563", "about": "“FoxP3 forms a head-to-head dimer in vivo and stabilizes its multimerization on adjacent microsatellites”", "note": "Some of the results follow.", "data": [{"target": "T1, MBP-FoxP1dN (Mus musculus, UniProt P58462 326-579)", "T1 sequence": "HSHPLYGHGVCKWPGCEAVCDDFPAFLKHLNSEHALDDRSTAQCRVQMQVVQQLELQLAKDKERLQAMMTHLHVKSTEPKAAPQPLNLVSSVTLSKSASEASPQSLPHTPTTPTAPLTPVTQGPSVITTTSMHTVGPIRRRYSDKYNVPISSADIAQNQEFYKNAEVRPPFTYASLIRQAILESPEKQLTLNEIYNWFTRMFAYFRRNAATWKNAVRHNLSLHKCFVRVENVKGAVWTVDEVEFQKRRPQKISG", "assay": "PD-seq (MBP pull-down with sequencing); 20 mM Tris-HCl pH 7.5, 100 mM NaCl, 1.5 mM MgCl2, 0.4 uM protein, 0.1 uM dsDNA library, 30 min, room temperature, amylose pull-down; high values mean tight binding", "settings": "protein: recombinant; tags: His6-MBP; chain copies: 2; dsDNA, one strand shown", "outline": "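Binding is reads-per-million enrichment of pull-down over input, with replicates pooled. It comes from 30 min room-temperature incubation in Tris pH 7.5 buffer with NaCl and MgCl2 of 0.4 µM His6-MBP-tagged, N-terminally truncated mouse FoxP3 or FoxP1 fragment from E. coli with 0.1 µM Klenow-filled degenerate double-stranded DNA library, followed by amylose resin capture, three washes and Illumina sequencing of the released DNA.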", "values": [{"sequence": "GATGATTGTTCTCCCAGCTGATGAATTGGTATTCTCGAGTAAACAAATTTTCCTAATCTTTCTGTTCAAGCGCCATCTAC", "binding signal": "1.02 RPM ratio (pull-down/input)"}, {"sequence": "GATGATTGTTCTCCCAGCTGATGAATTAATTTCGTCGAGTAAACAAATTTTCCTAATCTTTCTGTTCAAGCGCCATCTAC", "binding signal": "0.944 RPM ratio (pull-down/input)"}, {"sequence": "GATGATTGTTCTCCCAGCTGATGAATTGACTCACTCGAGTAAACAAATTTTCCTAATCTTTCTGTTCAAGCGCCATCTAC", "binding signal": "0.92 RPM ratio (pull-down/input)"}, {"sequence": "GATGATTGTTCTCCCAGCTGATGAATTTGCTCTTTCGAGTAAACAAATTTTCCTAATCTTTCTGTTCAAGCGCCATCTAC", "binding signal": "0.972 RPM ratio (pull-down/input)"}, {"sequence": "GATGATTGTTCTCCCAGCTGATGAATTTATTGGCTCGAGTAAACAAATTTTCCTAATCTTTCTGTTCAAGCGCCATCTAC", "binding signal": "1.09 RPM ratio (pull-down/input)"}, {"sequence": "GATGATTGTTCTCCCAGCTGATGAATTGGTGGGCTCGAGTAAACAAATTTTCCTAATCTTTCTGTTCAAGCGCCATCTAC", "binding signal": "0.802 RPM ratio (pull-down/input)"}, {"sequence": "GATGATTGTTCTCCCAGCTGATGAATTGATTGGCTCGAGTAAACAAATTTTCCTAATCTTTCTGTTCAAGCGCCATCTAC", "binding signal": "0.957 RPM ratio (pull-down/input)"}, {"sequence": "GATGATTGTTCTCCCAGCTGATGAATTGTGCTGGTCGAGTAAACAAATTTTCCTAATCTTTCTGTTCAAGCGCCATCTAC", "binding signal": "0.972 RPM ratio (pull-down/input)"}, {"sequence": "GATGATTGTTCTCCCAGCTGATGAATTCGCACAATCGAGTAAACAAATTTTCCTAATCTTTCTGTTCAAGCGCCATCTAC", "binding signal": "1.15 RPM ratio (pull-down/input)"}, {"sequence": "GATGATTGTTCTCCCAGCTGATGAATTATGAGGGTCGAGTAAACAAATTTTCCTAATCTTTCTGTTCAAGCGCCATCTAC", "binding signal": "0.838 RPM ratio (pull-down/input)"}, {"sequence": "GATGATTGTTCTCCCAGCTGATGAATTCATCAGATCGAGTAAACAAATTTTCCTAATCTTTCTGTTCAAGCGCCATCTAC", "binding signal": "0.931 RPM ratio (pull-down/input)"}, {"sequence": "GATGATTGTTCTCCCAGCTGATGAATTACCGTGGTCGAGTAAACAAATTTTCCTAATCTTTCTGTTCAAGCGCCATCTAC", "binding signal": "0.89 RPM ratio (pull-down/input)"}, {"sequence": "GATGATTGTTCTCCCAGCTGATGAATTGTAGGTTTCGAGTAAACAAATTTTCCTAATCTTTCTGTTCAAGCGCCATCTAC", "binding signal": "1.01 RPM ratio (pull-down/input)"}, {"sequence": "GATGATTGTTCTCCCAGCTGATGAATTCTACATCTCGAGTAAACAAATTTTCCTAATCTTTCTGTTCAAGCGCCATCTAC", "binding signal": "0.9 RPM ratio (pull-down/input)"}, {"sequence": "GATGATTGTTCTCCCAGCTGATGAATTGTACGTGTCGAGTAAACAAATTTTCCTAATCTTTCTGTTCAAGCGCCATCTAC", "binding signal": "0.946 RPM ratio (pull-down/input)"}, {"sequence": "GATGATTGTTCTCCCAGCTGATGAATTTATAGAGTCGAGTAAACAAATTTTCCTAATCTTTCTGTTCAAGCGCCATCTAC", "binding signal": "1.06 RPM ratio (pull-down/input)"}, {"sequence": "GATGATTGTTCTCCCAGCTGATGAATTCTATCCCTCGAGTAAACAAATTTTCCTAATCTTTCTGTTCAAGCGCCATCTAC", "binding signal": "0.859 RPM ratio (pull-down/input)"}, {"sequence": "GATGATTGTTCTCCCAGCTGATGAATTACGACAGTCGAGTAAACAAATTTTCCTAATCTTTCTGTTCAAGCGCCATCTAC", "binding signal": "1.03 RPM ratio (pull-down/input)"}, {"sequence": "GATGATTGTTCTCCCAGCTGATGAATTGTACTAGTCGAGTAAACAAATTTTCCTAATCTTTCTGTTCAAGCGCCATCTAC", "binding signal": "0.939 RPM ratio (pull-down/input)"}, {"sequence": "GATGATTGTTCTCCCAGCTGATGAATTTAGTTGGTCGAGTAAACAAATTTTCCTAATCTTTCTGTTCAAGCGCCATCTAC", "binding signal": "1.03 RPM ratio (pull-down/input)"}, {"sequence": "GATGATTGTTCTCCCAGCTGATGAATTACACGAATCGAGTAAACAAATTTTCCTAATCTTTCTGTTCAAGCGCCATCTAC", "binding signal": "1.2 RPM ratio (pull-down/input)"}, {"sequence": "GATGATTGTTCTCCCAGCTGATGAATTTCCAAGGTCGAGTAAACAAATTTTCCTAATCTTTCTGTTCAAGCGCCATCTAC", "binding signal": "0.753 RPM ratio (pull-down/input)"}, {"sequence": "GATGATTGTTCTCCCAGCTGATGAATTGCGCATTTCGAGTAAACAAATTTTCCTAATCTTTCTGTTCAAGCGCCATCTAC", "binding signal": "1.43 RPM ratio (pull-down/input)"}, {"sequence": "GATGATTGTTCTCCCAGCTGATGAATTCCGGACTTCGAGTAAACAAATTTTCCTAATCTTTCTGTTCAAGCGCCATCTAC", "binding signal": "0.729 RPM ratio (pull-down/input)"}, {"sequence": "GATGATTGTTCTCCCAGCTGATGAATTGGGCCAATCGAGTAAACAAATTTTCCTAATCTTTCTGTTCAAGCGCCATCTAC", "binding signal": "0.962 RPM ratio (pull-down/input)"}, {"sequence": "GATGATTGTTCTCCCAGCTGATGAATTCGTTAATTCGAGTAAACAAATTTTCCTAATCTTTCTGTTCAAGCGCCATCTAC", "binding signal": "0.967 RPM ratio (pull-down/input)"}, {"sequence": "GATGATTGTTCTCCCAGCTGATGAATTTCTATTGTCGAGTAAACAAATTTTCCTAATCTTTCTGTTCAAGCGCCATCTAC", "binding signal": "1.91 RPM ratio (pull-down/input)"}, {"sequence": "GATGATTGTTCTCCCAGCTGATGAATTGCCGCTGTCGAGTAAACAAATTTTCCTAATCTTTCTGTTCAAGCGCCATCTAC", "binding signal": "0.966 RPM ratio (pull-down/input)"}, {"sequence": "GATGATTGTTCTCCCAGCTGATGAATTAGACTGTTCGAGTAAACAAATTTTCCTAATCTTTCTGTTCAAGCGCCATCTAC", "binding signal": "0.876 RPM ratio (pull-down/input)"}, {"sequence": "GATGATTGTTCTCCCAGCTGATGAATTAATGGCCTCGAGTAAACAAATTTTCCTAATCTTTCTGTTCAAGCGCCATCTAC", "binding signal": "0.913 RPM ratio (pull-down/input)"}, {"sequence": "GATGATTGTTCTCCCAGCTGATGAATTCATCAATTCGAGTAAACAAATTTTCCTAATCTTTCTGTTCAAGCGCCATCTAC", "binding signal": "0.956 RPM ratio (pull-down/input)"}]}]}
